Results published in the supplement of paper PMC3724861.
Some of the results follow.

test system: T1, Caupolican (Caup) homeodomain DNA-binding domain; test: PBM E-score (8-mer, recovered from the published 9-mer minima) (E-score (dimensionless, -0.5 to 0.5)); Drosophila protein; higher = stronger relative binding preference, active = 0.31 or more
T1 sequence: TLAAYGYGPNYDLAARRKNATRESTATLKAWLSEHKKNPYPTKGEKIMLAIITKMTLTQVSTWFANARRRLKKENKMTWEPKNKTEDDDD
Procedure, shortened: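 Caup's homeodomain DNA-binding domain (residues 214-303) was produced by in vitro transcription and translation and applied at 100 nM to custom-designed protein binding microarrays. Each value is an enrichment score giving relative binding preference for a short DNA word; higher means stronger. Published 9-mer scores were the minimum of their two constituent 8-mer scores, and the 8-mer values were recovered from those minima. A cutoff of 0.31 marks candidate binding sequences.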

Sequence | PBM E-score
AACGCGGT | inactive: 0.0188
GTATGCCA | inactive: -0.0778
ATGGCCAG | inactive: -0.0226
AGCGAAAA | ≥ 0.00372
TCAACGAA | inactive: 0.0771
AAAGAGAA | inactive: -0.1
ACCAACAA | inactive: 0.156
CCCTTTCC | inactive: -0.232
CCTCAAGA | inactive: -0.0635
AGGTAACT | inactive: 0.0502
GAAATATC | inactive: 0.0839
GCCCAAAC | inactive: -0.144
AGTATGTC | inactive: 0.243
AAGCTTGA | inactive: -0.0734
AAGTCAGA | inactive: -0.0825
CACGGTCA | inactive: 0.0659
ACCTACTC | inactive: 0.0495
AGCCGGCC | inactive: -0.235
CTTAACCC | inactive: -0.154
ACTTGCAG | inactive: -0.00481
CGCCAGTC | inactive: -0.143
ATAAGCTA | inactive: 0.0835
CGTAATTC | inactive: 0.0236
AACTTATG | inactive: 0.123
CACCCAAC | inactive: -0.0696

Sequence | PBM E-score
ATTGCGTC | inactive: -0.0334
ACGACGAA | inactive: 0.0874
ACTCTACT | inactive: 0.081
CCCCCAGA | inactive: -0.337
AGAGAAGA | inactive: -0.0577
TTGAAAAA | inactive: 0.0864
AAAGTCTT | inactive: 0.0137
CTCCTACC | inactive: -0.143
TACCCGTA | inactive: 0.0829
CAGCCTGG | inactive: -0.164
ATATCGGA | inactive: 0.0909
GTACGGAA | inactive: 0.0512
CTAATGTC | inactive: 0.163
ATATCCGC | inactive: -0.0643
CAAAAAGG | inactive: -0.0727
AGTTGTTC | inactive: 0.261
AGACTGTG | inactive: 0.0481
AGGCCATC | inactive: -0.0892
TACGGGGA | inactive: -0.156
ATCAGCCA | inactive: -0.094
CGTTATAA | inactive: 0.0957
TCAGGTAA | inactive: 0.0914
AAATGGAC | inactive: 0.12
AGCAGTTC | inactive: -0.0654
CTTCGCGA | inactive: -0.129

Sequence | PBM E-score
CGGTCAGA | inactive: -0.035
CGCGTAAC | inactive: 0.126
TCACTCCA | inactive: -0.0552
CAGCGCTC | inactive: -0.18
ATTAAAGC | inactive: 0.0748
ATCGCCGA | inactive: -0.113
AGTCCCCA | inactive: -0.149
TCGGATAA | inactive: 0.0568
AAAAGGGT | inactive: -0.0385
TCTTATAA | inactive: 0.125
CATTCGCC | inactive: -0.165
AAAGATTT | inactive: -0.00222
CCTGACCG | inactive: -0.201
CTCGGATC | inactive: -0.0439
AACAGACC | inactive: 0.103
CAACTCTG | inactive: -0.0623
CGTTATCC | inactive: 0.00298
GCATATAC | inactive: 0.0987
GTTCAGTA | inactive: 0.152
ACGCGGTA | inactive: -0.0618
ATGCCATC | inactive: -0.0274
AACCCGGA | inactive: -0.132
ACCTAGCC | inactive: -0.179
AGGCTGTG | inactive: -0.0202
CCGGTGCC | inactive: -0.278

Sequence | PBM E-score
GCTAGAGC | inactive: -0.0724
GAACGCTA | inactive: -0.0459
GCAGGGAC | inactive: -0.161
ACGGGCAT | ≥ -0.014
GGGCAAAA | inactive: -0.0653
CATAGGCG | inactive: -0.00984
TACACCTA | ≥ 0.243
CCTTCCAA | inactive: -0.0625
GTATAGCA | inactive: 0.0731
ATTGCTCC | inactive: -0.0622
CAGTCCGG | inactive: -0.196
CACAACAC | inactive: 0.265
CTCGGGGC | inactive: -0.191
AGAATCCC | inactive: -0.0157
CCCTTTTC | inactive: -0.0893
CACAGTAC | inactive: 0.131
CTCCATTC | inactive: -0.0435
AAATCATT | inactive: 0.0648
CTACGGTC | inactive: -0.124
CATGAGTA | inactive: 0.15
AGGATTCG | inactive: -0.0662
AGCTTCGA | inactive: -0.0868
ACAGAGCG | inactive: 0.0115
ATTGTGCG | inactive: -0.0378
ACTTAAGT | inactive: 0.0483

Sequence | PBM E-score
ACTGTCTC | inactive: -0.00505
TCTGGACA | inactive: 0.196
ACAGACCG | inactive: 0.00042
ACACATCA | inactive: 0.156
CGATTAAC | inactive: 0.0632
CATTACCG | inactive: 0.0447
GAGGGGAC | inactive: -0.138
CCCGTCTA | ≥ -0.0405
AGTCACCA | inactive: 0.00793
ATGCCTTA | inactive: -0.041
ATATTTGA | inactive: 0.131
AGGTGACA | inactive: 0.159
ACATAACA | active: 0.332
AATGGCAG | inactive: -0.056
GGTCCTCA | inactive: -0.0928
AATCATGT | active: 0.42
GCACGCCC | inactive: -0.192
GCCCATGA | inactive: -0.142
CACTTAAG | inactive: 0.0776
ACGGCCCT | inactive: -0.161
ATGGTGCG | inactive: 0.0265
CTAAGCTC | inactive: -0.05
GAGTTTGC | inactive: -0.0488
CTCAACAG | inactive: 0.012
CAAATGTA | inactive: 0.294

Sequence | PBM E-score
CCGGGTGC | inactive: -0.287
GCTAAATA | inactive: 0.0153
CTATCTTA | inactive: 0.0289
CACCCCGG | inactive: -0.0927
GAAGACGC | inactive: -0.143
AATCACAC | inactive: 0.126
GGAGTTAC | inactive: 0.0415
CCGACCCG | inactive: -0.206
GACGATTA | inactive: 0.111
GTCAGAAC | inactive: 0.0109
CAATATCA | inactive: 0.195
CAGCGGAA | inactive: -0.159
AGGTTACT | inactive: 0.0483
GAAACAGC | inactive: -0.00702
CCGCTAAC | inactive: -0.0919
CACAATCG | inactive: 0.0134
ACCCGGGA | inactive: -0.11
GCGGAGTA | inactive: -0.0693
CCATGGCA | inactive: -0.0986
TAGGCGCA | inactive: -0.0855
ACTCCGCA | inactive: -0.121
ACAGAACA | inactive: 0.297
CCTGCTAC | inactive: 0.0387
ACCGGTCG | inactive: -0.0163
CTGTCATA | inactive: 0.246

Sequence | PBM E-score
CGAGAAGC | inactive: -0.0725
CCCATCAC | inactive: -0.0736
CCCTGATC | inactive: -0.118
ATCACAGC | inactive: 0.089
AATGGGCC | inactive: -0.152
GACAGCGC | inactive: 0.00179
CCTTGCCG | inactive: -0.169
ACTCGAGG | inactive: -0.122
AGAAAAAT | inactive: 0.0492
CTAGCTTA | inactive: -0.00803
ATAGCGGA | inactive: -0.0519
GGACAATA | inactive: 0.0441
AGCGGAAC | inactive: -0.0552
AACGCCGA | inactive: -0.0968
CTGCGACC | inactive: -0.228
AGCAGTGG | inactive: -0.191
AGGTCTGA | inactive: -0.0349
GACGGAAC | inactive: 0.00422
AAAGTCGG | inactive: -0.134
ACGTGTGC | inactive: 0.0653
GTTAGTGA | inactive: 0.152
AGAATTGA | inactive: 0.0274
CCAAGCAA | inactive: -0.0569
CTGTTTCC | inactive: 0.0673
AGTTAGAG | inactive: -0.067

Sequence | PBM E-score
CACGTGCC | inactive: 0.0232
GTTGTATA | active: 0.347
AAGTAGCT | inactive: 0.0117
AAGAGGCA | inactive: -0.122
AATGATCC | inactive: 0.0625
AGAACAAG | active: 0.329
AAAAATGT | inactive: 0.156
AGACTCTG | inactive: -0.015
AAATCATC | inactive: 0.141
CCTGTAAC | inactive: 0.176
GCCATAGC | inactive: -0.0247
CCACAAAA | inactive: -0.0507
ACGTTGCG | inactive: -0.0633
AGGAAATC | inactive: 0.0471
CACTATGA | inactive: 0.0412
ACTATAAT | inactive: 0.162
CCCAACAC | inactive: -0.0228
ATCCCGAT | inactive: 0.0662
GCTAATTA | inactive: 0.176
ATTGAAAA | inactive: 0.0968
ACTTCGGC | inactive: -0.147
GCGATCGA | inactive: 0.0192
ATCAAACG | inactive: 0.0303
GATTCTGC | inactive: 0.0258
GTGGTAAA | inactive: 0.103

Sequence | PBM E-score
CAGATTCA | inactive: 0.0623
ACCCTTCC | inactive: -0.0906
CCACTTCA | inactive: -0.0321
CACGGTCC | inactive: -0.0957
CCAACTAA | inactive: 0.0388
AACATCTA | inactive: 0.252
AAAAACTC | inactive: -0.0364
CCAGAATA | inactive: 0.0959
ACCGTGCA | inactive: 0.00395
AGCTCCCA | inactive: -0.138
GTAGAGAA | inactive: -0.0528
ATTACTGC | inactive: 0.106
CCATGAGG | inactive: -0.199
GCAGAAAA | inactive: 0.004
CGATATTA | inactive: 0.219
ACCCATGG | inactive: -0.101
ACGCCCAT | ≥ -0.00794
CATCAGAC | inactive: 0.067
CACTATTA | inactive: 0.124
CGTTAGGA | inactive: 0.00342
CGGTTTAA | inactive: 0.0679
AAGTTGGA | inactive: 0.0552
